{"source": "the supplement of paper PMC4604168 (melanoma cell lines)", "note": "This is one part of the list. Single values are uncertain, as repeats are few or missing.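 Further: cell number obtained by counting DAPI-stained nuclei in high-throughput microscope images with image analysis software, screen run in 1,536-well plates.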"}
{"system": "A375", "experiment": "cell count relative to DMSO control; melanoma cells; higher = more viable cells", "conditions": "library dose: low library concentration; 72 h; first compound 0.4 µM", "units": {"cell count": "%"}}
{"smiles": "CCCCCCCCCCCCCCCCCCOP(=O)([O-])OC1CC[N+](C)(C)CC1", "note": "[Perifosine] + Cn1cncc1[C@@](N)(c1ccc(Cl)cc1)c1ccc2c(c1)c(-c1cccc(Cl)c1)cc(=O)n2C [tipifarnib] (partner dose 0.01 µM)", "cell count": 20.7}
{"smiles": "C[C@@H](N)c1ccc(C(=O)Nc2ccnc3[nH]ccc23)cc1", "note": "+ C[C@@H](Oc1cc(-c2cnn(C3CCNCC3)c2)cnc1N)c1c(Cl)ccc(F)c1Cl [Crizotinib] (partner dose 0.2 µM)", "cell count": 83.9}
{"smiles": "Cn1sc(=O)n(Cc2ccccc2)c1=O", "note": "+ NCC(=O)Nc1ccc(-n2nc(C(F)(F)F)cc2-c2ccc3c(ccc4ccccc43)c2)cc1 [OSU03012] (partner dose 1 µM)", "cell count": 17.6}
{"smiles": "C[C@@H](N)c1ccc(C(=O)Nc2ccnc3[nH]ccc23)cc1", "note": "+ CCN(CC)CCNC(=O)c1c(C)[nH]c(/C=C2\\C(=O)Nc3ccc(F)cc32)c1C [sunitinib] (partner dose 0.4 µM)", "cell count": 98.8}
{"smiles": "C[C@@H](N)c1ccc(C(=O)Nc2ccnc3[nH]ccc23)cc1", "note": "+ Cn1nnc2c(C(N)=O)ncn2c1=O [temozolomide] (partner dose 2 µM)", "cell count": 96.3}
{"smiles": "Cn1sc(=O)n(Cc2ccccc2)c1=O", "note": "+ C=CCNC1=C2C[C@@H](C)C[C@H](OC)[C@H](O)[C@@H](C)/C=C(\\C)[C@H](OC(N)=O)[C@@H](OC)/C=C\\C=C(/C)C(=O)NC(=CC1=O)C2=O [Tanespimycin] (partner dose 0.002 µM)", "cell count": 116}
{"smiles": "CCCCCCCCCCCCCCCCCCOP(=O)([O-])OC1CC[N+](C)(C)CC1", "note": "[Perifosine] + CO[C@H]1C[C@@H]2CC[C@@H](C)[C@@](O)(O2)C(=O)C(=O)N2CCCC[C@H]2C(=O)O[C@H]([C@H](C)C[C@@H]2CC[C@@H](OCCO)[C@H](OC)C2)CC(=O)[C@H](C)/C=C(\\C)[C@@H](O)[C@@H](OC)C(=O)[C@H](C)C[C@H](C)/C=C/C=C/C=C/1C [everolimus] (partner dose 0.02 µM)", "cell count": 70.7}
